# According to the supplement of paper PMC3334620:
# The full ranking holds about 33,000 sequences; the median of “E-score (-0.5 to 0.5)” is about -0.036, and the highest 2% start at about 0.37. The list shows a part of the results.
# Target: T1, Yer064c (UniProt P40041)
# T1 sequence: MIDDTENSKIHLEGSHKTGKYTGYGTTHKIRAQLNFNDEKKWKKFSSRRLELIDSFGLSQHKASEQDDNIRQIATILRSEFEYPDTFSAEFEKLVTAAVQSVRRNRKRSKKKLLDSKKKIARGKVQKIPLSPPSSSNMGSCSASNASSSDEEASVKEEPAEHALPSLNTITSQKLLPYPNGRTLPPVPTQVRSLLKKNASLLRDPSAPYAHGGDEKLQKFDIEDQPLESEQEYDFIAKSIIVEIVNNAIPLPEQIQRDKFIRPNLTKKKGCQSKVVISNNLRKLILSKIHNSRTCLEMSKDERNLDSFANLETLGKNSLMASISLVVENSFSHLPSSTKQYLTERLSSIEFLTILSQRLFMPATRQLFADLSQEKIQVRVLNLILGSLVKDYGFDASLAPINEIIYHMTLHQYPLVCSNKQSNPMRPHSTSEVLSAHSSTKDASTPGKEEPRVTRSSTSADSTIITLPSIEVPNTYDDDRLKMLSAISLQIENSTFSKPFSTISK
# Assay: PBM E-score (8-mer binding enrichment) (E-score (-0.5 to 0.5)); higher = stronger / more preferred TF binding; most listed sequences are background and not binding sites
# Conditions: protein concentration: 200 nM; construct: GST-full length
# Summary of the method: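 Yeast transcription factors carrying a GST tag, as full-length proteins or DNA-binding domains, were produced by PURExpress in vitro transcription/translation. About 100-200 nM protein was applied to universal all-10-mer Agilent arrays, double-stranded by primer extension on fresh or once-stripped slides. Bound protein was detected with fluorescent anti-GST, and scans were normalised with masliner. The Universal PBM Analysis Suite gave each ungapped eight-base word, pooled with its reverse complement, an E-score, a modified Wilcoxon-Mann-Whitney statistic.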
row,Sequence,PBM E-score
1,ACCGTGCG,0.0224
2,GTTCCTCA,-0.165
3,AGCAATAG,-0.217
4,AGAGGCTA,-0.253
5,GTAGGCAA,-0.112
6,ACGTCGTG,0.0944
7,GATCTACC,0.0641
8,CCCCACAG,-0.113
9,GACTCCTA,0.443
10,AGCGTATG,-0.0255
11,AGCATCGC,-0.239
12,AAACGTTG,-0.292
13,CCCGGGTA,0.00097
14,CTTAGAAG,0.0289
15,AACGACTT,0.177
16,CATTCTAC,-0.179
17,CAGTCATG,0.458
18,CAATACTA,0.0776
19,CCAATAGA,-0.0567
20,ACATTCTA,0.0824
21,AACCGTGC,-0.0656
22,CGATACCA,-0.128
23,GGGTATAA,-0.108
24,CTGACTAA,0.48
25,CGGTAGCC,0.0131

row,Sequence,PBM E-score
1,GAAGAATC,0.228
2,CTGTATCA,-0.0383
3,AGTGGGAA,0.0388
4,ATTGTTGG,0.0194
5,CAGTTCGA,-0.145
6,CACTCTGA,0.0392
7,CCGGGTAA,-0.0414
8,GACTACCA,0.413
9,CGAGCCCC,-0.252
10,GAGGCTGC,-0.246
11,AGCACTAG,0.012
12,GCAGATAC,-0.0953
13,CTGATATA,-0.047
14,GTTCATCA,0.0863
15,CGATCACC,-0.0685
16,ACGACTCT,0.404
17,CTGCGAAA,0.0209
18,CTGTAGTA,0.13
19,AGCTGACT,0.458
20,CATCTGGA,-0.073
21,GATTTTTA,0.17
22,CCTTCGAG,-0.261
23,CCGGCGTA,-0.104
24,AACGTGCA,-0.112
25,GATAGCCC,-0.233

row,Sequence,PBM E-score
1,ACGCAACT,-0.0859
2,CTTGGATC,-0.153
3,CGGTGGAA,-0.214
4,AGGGAAAG,-0.163
5,CAAGTCAG,0.306
6,AACTTAAG,0.0989
7,GAAGATAA,0.181
8,GAACTGCC,-0.214
9,ATGGAGTC,0.398
10,GACCGATA,-0.139
11,ATCTGCGA,-0.018
12,CCCGATCG,-0.117
13,ACTGTGGA,0.0507
14,AGGGAGGA,-0.18
15,GATCCGCC,-0.041
16,GTCGAGCA,-0.135
17,CGCCTGAC,-0.0144
18,ATTCCCTG,0.0224
19,CCGCCTAG,-0.168
20,AATGGTCC,-0.0322
21,AGCAGTAG,-0.114
22,GTAGCTAC,-0.0525
23,AAGCGCAA,-0.136
24,AGACCAGA,0.0297
25,ATTGCTAA,0.058

row,Sequence,PBM E-score
1,CACATTAG,0.142
2,CGGAACTA,-0.16
3,GGATATCC,-0.314
4,AGACGACT,0.397
5,GAATATCC,-0.213
6,CGTTAGAA,0.0197
7,ACTTCCTA,0.158
8,AGCGCGTC,-0.174
9,ACACTAAA,0.0649
10,GCAGCACC,-0.194
11,CTGGGTCC,-0.268
12,CCATGTCC,-0.153
13,CGAACGTA,-0.0351
14,GGCCGCAA,-0.135
15,AATGTCGT,-0.0618
16,ACGGACCC,-0.253
17,AGAAAACT,-0.0404
18,GCGAACCC,-0.152
19,AGAGACAC,0.135
20,ACGTAAAT,-0.124
21,AGCCCGGA,-0.142
22,CATATTGA,0.24
23,CAAACGCA,-0.0486
24,CATTGGAG,0.0286
25,CGGTGCTA,-0.178

row,Sequence,PBM E-score
1,CATCTAAC,0.083
2,CAGTGGGC,-0.106
3,CAATGGCC,-0.281
4,CCCCTGCA,-0.127
5,GACATCAC,-0.0583
6,GTAACTAA,0.115
7,CGGGTGCA,-0.159
8,ACAAGAGA,-0.0733
9,GACTTGCC,0.158
10,AATGACAG,-0.045
11,ATACATTC,-0.0684
12,CTAGGCAA,-0.0898
13,CATCACGA,0.132
14,CTCTGTCC,-0.14
15,AACGTGGG,-0.189
16,CAATGTTC,0.0297
17,CCTCTCGA,-0.221
18,AGCATCCG,-0.201
19,ATGCTCTG,-0.221
20,ACGGCGCC,-0.206
21,GGATTGTA,-0.213
22,ACCTACGT,-0.0957
23,CAACCCTG,0.0094
24,CTACGAAG,0.00221
25,GGGACTTA,-0.0167

row,Sequence,PBM E-score
1,GCGCATGA,0.0941
2,CATGCACA,0.107
3,ATCGCACA,0.147
4,CGTACTCC,0.099
5,CCTATTTC,-0.224
6,ACATTAAA,-0.0887
7,CCTGTATA,-0.184
8,ATTTGGAG,-0.00763
9,ACCCTATC,0.0364
10,TCTGAGCA,-0.00297
11,GAGACGTA,0.0503
12,AAGCTTAG,0.0387
13,CGACAGGA,-0.111
14,AGTCATAT,0.484
15,ACCGATCG,-0.0467
16,GTCAGCCA,0.118
17,TACCTCCA,-0.065
18,AGTGCTAA,0.154
19,ACACTACC,-0.0729
20,GCGCGGTA,-0.107
21,AGGGATTG,-0.0992
22,CAACAAGC,0.115
23,ACCGAAAA,0.24
24,ATATAGGC,-0.0646
25,GGGTGCTA,-0.0714

row,Sequence,PBM E-score
1,GGGGCTAA,-0.145
2,AACCTTAA,0.02
3,GCAATTGC,-0.123
4,AAAGTCTC,-0.0362
5,TGATTTAA,0.407
6,CCACGTGA,-0.0389
7,ACAGCGAG,0.0422
8,GTGGGCAA,-0.133
9,AAGTCGCC,0.222
10,CAGGCAAA,-0.227
11,ATCGGAAC,0.164
12,ACCCCACG,-0.309
13,CCTGGACC,-0.157
14,GCGCTAAC,-0.217
15,CCAGAGCG,-0.0986
16,ACGTCTAC,0.0284
17,AAATCCCC,-0.314
18,ATGCTCGC,-0.124
19,AGCCTGAA,0.0248
20,CTAACTAA,0.225
21,AACTTGGC,-0.112
22,ACCATTGG,0.0904
